Experimental data from PubChem BioAssay AID504832 (National Center for Advancing Translational Sciences (NCATS), 2011).
About 18,000 (5.8%) of roughly 310,000 compounds were called active. The inconclusive results got no clear call from the source; some entries with a clear call stand among them for comparison. Calls follow the shape of the dose curve; as a rule, active = well fitted inhibition curve with a large enough effect; inconclusive = small, poorly fitted or top-dose-only effect, or another doubt; inactive = no such curve, though single readings can be large or run the other way. Potencies of inconclusive entries are left out as doubtful fits.

experiment: Primary qHTS for delayed death inhibitors of the malarial parasite plastid, 48 hour incubation; conditions: P. falciparum luciferase growth in erythrocytes; series mostly up to 28.7 µM; activity change, negative = inhibition: at the top concentration
How it was run: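 Luciferase-expressing parasites in RBCs, 2% Hct / 0.1% parasitemia final; RPMI 1640 + 0.5% Albumax; 37 C, 5% CO2, one generation; luminescence read-out, lower signal = inhibition.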
% is scaled to controls: 0 for no effect and ±100 for the full control effect; potency is read from the fitted curve at half-maximal effect; tags tell the direction and shape of the fitted curve.

SMILES	activity change, negative = inhibition	Potency
N#C/C(C(=O)N1CCCCC1)=C1\Nc2ccccc2S1	inactive: 73.9%	–
CSc1nc2nccc(/C=C\c3ccccc3)n2n1	–	inconclusive [inhibitor, single point]
CCOC(=O)CNC(=O)COc1coc(CN2CCN(Cc3ccccc3)CC2)cc1=O	inactive: 20.9%	–
CC(C)(C)OC(=O)[C@H](Cc1ccccc1)NC(=O)c1nc[nH]c1C(=O)NCCCCCN	–	inconclusive [inhibitor, single point]
CCc1nc(NCCCn2ccnc2)c2oc3ccccc3c2n1	–	inconclusive [inhibitor, single point]
OCCNc1nc(Nc2ccccc2)nc2ccccc12	–	inconclusive [inhibitor, full curve, poor fit]
Cc1ccc(C(C(=O)NCc2ccco2)N(CC2CCCO2)C(=O)Cn2nnc3ccccc32)cc1 (centres undefined)	–	inconclusive [inhibitor, full curve, poor fit]
Cc1cc(OCC(=O)N(C(C)C)C(C)C)cc(C)c1Br	–	inconclusive [inhibitor, single point]
CN(c1ccc(F)cc1)S(=O)(=O)c1ccc(Cl)c(C(=O)Nc2ccncc2)c1	–	inconclusive [inhibitor, single point]
Clc1ccccc1-c1nnc2sc(-c3ccc4c(c3)OCO4)nn12	–	active: 11.7 µM
CCOC(=O)c1c(-c2ccc(C)o2)csc1NC(=O)CN1CCCCC1	–	inconclusive [inhibitor, partial curve, poor fit]
COc1cccc(NS(=O)(=O)c2c(C)n(C)c(=O)n(C)c2=O)c1	inactive: 41.8%	–
COc1cc(/C=C/c2cccc[n+]2C)ccc1OCC(=O)Nc1ccccc1	–	active: 1.04 µM
O=C1NCC(COCc2ccco2)O1 (centres undefined)	inactive: 8.34%	–
CN(C)CCCNC(=S)NCC(c1ccc(Cl)cc1Cl)c1c[nH]c2ccccc12 (centres undefined)	–	inconclusive [inhibitor, full curve]
Cc1ccc(C(C)C)c(OCc2ccc(C(=O)N/N=C/c3ccc(O)cc3O)cc2)c1	–	active: 2.62 µM
Cn1nc(CC(=O)NCc2ccc(C(F)(F)F)cc2)c2ccccc2c1=O	inactive: -13.7%	–
C#CCOCCOCCOCCNc1nc(N2CCN(C(=O)CCCCCCCCCCNC(=O)[C@@H](CCSC)n3cc(CCO)nn3)CC2)nc(N2CCN(C(=O)CCCCCCCCCCNC(=O)[C@H](CCCN=C(N)N)n3cc(C[C@@H](C)CC)nn3)CC2)n1	–	active: 3.29 µM
Cc1ccccc1OCCN(C#N)c1nc(N(C)C)nc(N(C)C)n1	–	active: 11.7 µM
O=C(c1ccccc1Cl)N1CCN(C(=O)C2CCCO2)CC1 (centres undefined)	–	inconclusive [inhibitor, partial curve, poor fit]
CCOC(=O)C1=C(SCC(=O)Nc2ccccc2)NC(=O)C(C#N)C12CCCCC2 (centres undefined)	–	inconclusive [inhibitor, partial curve]
Cc1cccc(N2CCN(C(=O)CSc3ccsc3[N+](=O)[O-])CC2C)c1 (centres undefined)	–	inconclusive [inhibitor, single point]
Cc1ccc(CC(=O)Nc2cccc(C)n2)cc1	inactive: 153%	–

SMILES	activity change, negative = inhibition	Potency
Cc1cc(Cl)c2oc(C(=O)NCCN3CCCCC3CO)c(C)c2c1 (centres undefined)	–	inconclusive [inhibitor, single point]
CCN(c1ccccc1)S(=O)(=O)c1ccc2[nH]cc(C(=O)NCCOC)c(=O)c2c1	–	inconclusive [inhibitor, single point]
CN(C(=O)c1ccc(NC(=O)Cc2cccc(NC(=O)C3CCN(C(=O)C4CC4)CC3)c2)cc1)C1CCCC1	–	inconclusive [inhibitor, single point]
Cc1ccc(S(=O)(=O)Nc2ccc(O)c3ncccc23)cc1	–	inconclusive [inhibitor, single point]
COc1ccc(-c2ocnc2C(=O)Nc2ccc(N3CCOCC3)cc2N2CCOCC2)cc1OC	–	active: 8.28 µM
COCCN(C(=O)COC(=O)/C=C/c1ccc(OC)c(OC)c1)c1c(N)n(Cc2ccccc2)c(=O)[nH]c1=O	–	inconclusive [inhibitor, single point]
Cc1cc(C)c2nc(N(CCCN(C)C)C(=O)c3ccc(S(=O)(=O)N4CCCCCC4)cc3)sc2c1	–	active: 9.28 µM
COc1cc(C(C)=O)ccc1OCC(=O)Nc1ccc(Cl)c(S(=O)(=O)N2CCOCC2)c1	–	active: 4.15 µM
CCOc1ccccc1CN(Cc1ccco1)S(=O)(=O)c1ccc(-n2cnnn2)c(OC)c1	–	active: 10.4 µM
Cc1ccccc1C(=O)N1CCN(c2ccc(NC(=O)c3ccco3)cc2Cl)CC1	–	active: 3.29 µM
CC(=O)N1CC(=O)N(c2ccccc2)C1=O	inactive: 2.3%	–
COc1ccccc1S(=O)(=O)NCc1ccc(C(=O)NC2CCC(O)CC2)cc1 (centres undefined)	–	inconclusive [inhibitor, partial curve, poor fit]
Cc1c(NC(=S)N/C(=N/S(=O)(=O)c2ccc(Cl)cc2)c2ccccc2)c(=O)n(-c2ccccc2)n1C	–	inconclusive [inhibitor, full curve, poor fit]
CCOC(=O)C1=C(O)/C(=C\c2sccc2C)N=C1C	–	inconclusive [inhibitor, single point]
CCOC(=O)[C@@H]1[C@H]2COc3cc(OC)ccc3[C@H]2N2C(=O)N(c3ccc(F)cc3)C(=O)[C@]12C	–	inconclusive [inhibitor, partial curve, poor fit]
O=C(Nc1ccc2ncccc2c1)c1cc(Cl)ccc1Cl	–	inconclusive [inhibitor, single point]
Cc1ccccc1NC(=O)CS(=O)(=O)c1cn(CC(=O)N2CCOCC2)c2ccccc12	–	inconclusive [inhibitor, full curve, poor fit]
N#Cc1ccc(C(=O)Nc2nc3ccccc3[nH]2)cc1	inactive: 63.2%	–
Cc1oc2c(CN3CCCC3)c(O)ccc2c(=O)c1-c1ccc(Br)cc1	–	active: 9.28 µM
Cn1cc[n+](C)c1P(=S)(c1ccccc1)c1ccccc1	–	inconclusive [inhibitor, partial curve, poor fit]
CC(=O)c1cn(CC(=O)Nc2cccc(C)c2C)c2ccccc12	inactive: 39.1%	–
COc1cc(C2c3c(oc4ccccc4c3=O)C(=O)N2Cc2ccncc2)ccc1O (centres undefined)	–	inconclusive [inhibitor, single point]
C#CCOCCOCCOCCNc1nc(N2CCN(C(=O)C(Cc3ccc(O)cc3)n3cc(C(N)CC(C)C)nn3)CC2)nc(N2CCN(C(=O)C(Cc3cc4ccccc4[nH]3)n3cc(C(N)Cc4ccc(O)cc4)nn3)CC2)n1 (centres undefined)	–	inconclusive [inhibitor, single point]

SMILES	activity change, negative = inhibition	Potency
Fc1cccc(CNc2ncnc3ccc(-c4cccc(Cl)c4)cc23)c1	–	active: 6.57 µM
Cn1c(=O)c2c(nc(Br)n2C/C=N/NC(N)=S)n(C)c1=O	–	inconclusive [inhibitor, single point]
CC(=O)N/N=C/c1cc(C(C)(C)C)cc(/C=N/NC(C)=O)c1O	inactive: -2.61%	–
CCOc1ccc(C2NC(=O)NC(C)=C2C(=O)OC)cc1C (centres undefined)	inactive: -14.6%	–
COc1cc(C(=O)NNC(=O)c2cc(C)[nH]n2)cc(OC)c1OC	inactive: 16.1%	–
C=C1C(=O)O[C@@H]2[C@H]1[C@@H](OC(=O)/C(C)=C/C)C/C(C)=C\C(=O)/C=C(\C)[C@@H]2O	–	inconclusive [inhibitor, single point]
Cc1ccc(-n2c(C)cc(C(=O)OCC(=O)N(CC(C)C)C3CCS(=O)(=O)C3)c2C)cc1 (centres undefined)	inactive: -90.8%	–
CCOC(=O)c1cnc2c(CC)cccc2c1NCCCN1CCOCC1	–	inconclusive [inhibitor, partial curve, poor fit]
CC(NCc1ccc(F)cc1)C(=O)NC1CCCCC1 (centres undefined)	inactive: 24.5%	–
Cc1ccnc(SCc2cc(=O)c(OC(=O)c3ccc(Cl)c([N+](=O)[O-])c3)co2)n1	inactive: -3.06%	–
Cc1nn(C)c(C)c1C(C)NC(=O)c1ccc(OC2CCN(Cc3ccccn3)CC2)cc1 (centres undefined)	–	inconclusive [inhibitor, partial curve, poor fit]
CC(=O)c1c(C)n(CCc2ccc(Cl)cc2)c2ccc(O)cc12	inactive: 10.9%	–
O=c1nc(SCc2cccc(C(F)(F)F)c2)nc2ccccn12	–	inconclusive [inhibitor, partial curve]
CCOc1ccc(/C=N/n2nnnc2N)cc1O	–	inconclusive [inhibitor, partial curve, poor fit]
COc1ccc2c(n1)Sc1nc3ccccc3nc1N2	inactive: 181%	–
Cc1ccc(C)c(S(=O)(=O)N2CCN(Cc3cc4c(cc3O)OCO4)CC2)c1	–	inconclusive [inhibitor, single point]
CCOC(=O)c1c(NC(=O)C2=C(C)NC(=S)NC2c2ccc(C)cc2)sc(C)c1C (centres undefined)	–	active: 11.7 µM
CCN(CC(=O)NCc1cccs1)c1ccc(S(=O)(=O)N2CCN(C)CC2)cn1	inactive: -4.18%	–
C(=N\NC1=Nc2cccc3cccc1c23)/c1ccccn1	–	inconclusive [inhibitor, full curve]
CCOC(=O)c1c(-c2ccccc2)csc1NC(=O)CSc1nncs1	–	active: 9.28 µM
Cc1ccc(-c2nnc(CCC(=O)NCC3C4CC5CC(C4)CC3C5)o2)s1 (centres undefined)	–	inconclusive [inhibitor, single point]
CC(=O)c1[nH]c(C)c(C(C)=O)c1C	inactive: 0.436%	–
O=C(COC(=O)CCc1ccccc1)Nc1cc([N+](=O)[O-])ccc1F	–	inconclusive [inhibitor, partial curve, poor fit]
